Experimental data: the supplement of paper PMC10126150
Values marked as one replicate rest on one cluster of the flow cell; about a third of the high ones do not repeat.
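Also: ATP exposure 15 min at 22 °C before imaging.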

These sequences were tested on ATP (assay: switch fluorescence ratio, 500 uM ATP over buffer (Cy3 cluster intensity, sum of 5 cycles each) (fold (ratio)); higher = stronger signal-on switching upon ATP binding; sequences stand for … in TCGTCGGCAGCGTCAGATGTGTATAAGAGACAGTTTTTTTTTTTTTTTTTTTTTTTTT…TC). Conditions: aptamer strand: ATP DNA aptamer (quencher-CACCTGGGGGAGTATTGCGGAGGAAGG + anchor), 100 nM annealed; ATP concentration: 500 uM; one replicate.
In short: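 After annealing to 100 nM quencher-labelled ATP aptamer, Cy3-labelled switching-strand clusters on a modified Illumina MiSeq flow-cell were imaged in selection buffer. A second image followed after 15 min with 500 uM ATP at 22 °C, and five such buffer/ATP cycles were done, each separated by NaOH stripping and re-annealing. The fluorescence ratio, averaged per switch-domain sequence, is summed target-cycle over summed buffer-cycle Cy3 intensity per cluster, with clusters outside 100-1000 RFU excluded.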
For GCCCCTATAT, the switch fluorescence ratio was 1.06. For GCCCCTTACC, the switch fluorescence ratio was 1.12. Work on GCCCGATGGA yielded a switch fluorescence ratio of 1.06. GCCCGCATGA gave a switch fluorescence ratio of 2.95. In the case of GCCCGGTCTT, the switch fluorescence ratio is reported as 1.02. GCCCGTCACA was tested, and the switch fluorescence ratio was 1.05. For GCCCTACAGC, the switch fluorescence ratio was 1.06. GCCCTAGTCT was tested, and the switch fluorescence ratio was 1.03. In the case of GCCCTATAAT, the switch fluorescence ratio is reported as 0.94. With GCCCTCACCC the switch fluorescence ratio was 1.07. With GCCCTCATCG the switch fluorescence ratio was 0.983. For GCCCTCCGGA, the switch fluorescence ratio was 2.01. GCCCTCGTAC gave a switch fluorescence ratio of 1.14. Sequence GCCGAATCTT has a switch fluorescence ratio of 0.99. GCCGAATGAC showed a switch fluorescence ratio of 1.25. In the case of GCCGACAACG, the switch fluorescence ratio is reported as 1.05. Work on GCCGACATGC yielded a switch fluorescence ratio of 1.13. In the case of GCCGACTTCT, the switch fluorescence ratio is reported as 1. In the case of GCCGATAAAG, the switch fluorescence ratio is reported as 1.01. Work on GCCGCAACCG yielded a switch fluorescence ratio of 1.84. GCCGCAGCTG gave a switch fluorescence ratio of 1.15. Sequence GCCGCATCT has a switch fluorescence ratio of 0.996. GCCGCCAAAA was tested, and the switch fluorescence ratio was 3.9. GCCGCCCCCG showed a switch fluorescence ratio of 1.03. With GCCGCCCGTA the switch fluorescence ratio was 0.966. GCCGCGACCG showed a switch fluorescence ratio of 1.05. Work on GCCGCTTTTG yielded a switch fluorescence ratio of 1.04. Sequence GCCGGATATA has a switch fluorescence ratio of 1. Sequence GCCGGGTAAG has a switch fluorescence ratio of 1.01. In the case of GCCGGGTCCT, the switch fluorescence ratio is reported as 1.02. GCCGGTTTGT showed a switch fluorescence ratio of 1.01. With GCCGTAAGGC the switch fluorescence ratio was 1.03. For GCCGTAGTTC, the switch fluorescence ratio was 0.964. Work on GCCGTCCTGG yielded a switch fluorescence ratio of 1.04. With GCCGTCGACG the switch fluorescence ratio was 0.971. For GCCGTGGACG, the switch fluorescence ratio was 1. GCCGTGTGGA gave a switch fluorescence ratio of 1.05. In the case of GCCGTTGAGG, the switch fluorescence ratio is reported as 1.01. Sequence GCCGTTTATA has a switch fluorescence ratio of 0.994. With GCCGTTTATT the switch fluorescence ratio was 1.01. For GCCGTTTCTG, the switch fluorescence ratio was 0.945. GCCTAAACA gave a switch fluorescence ratio of 1. GCCTAACATT was tested, and the switch fluorescence ratio was 0.997. With GCCTAATTTC the switch fluorescence ratio was 1. GCCTACTCAG showed a switch fluorescence ratio of 1.05. Sequence GCCTATGCGC has a switch fluorescence ratio of 0.987. Sequence GCCTATTTG has a switch fluorescence ratio of 1. In the case of GCCTCCAGTG, the switch fluorescence ratio is reported as 3.39. GCCTCCGGGG gave a switch fluorescence ratio of 1.2. GCCTCTTTCC was tested, and the switch fluorescence ratio was 1.05. GCCTGACATT showed a switch fluorescence ratio of 1.02. GCCTGCTCCA showed a switch fluorescence ratio of 1. In the case of GCCTGGCATT, the switch fluorescence ratio is reported as 1. With GCCTGGGGTG the switch fluorescence ratio was 1.47. GCCTGGGTGG gave a switch fluorescence ratio of 1.08. For GCCTGGTATC, the switch fluorescence ratio was 0.978. Sequence GCCTGGTCGG has a switch fluorescence ratio of 0.986. In the case of GCCTGGTGGG, the switch fluorescence ratio is reported as 1.04. Work on GCCTGTCGCG yielded a switch fluorescence ratio of 1.02. GCCTGTTCTG was tested, and the switch fluorescence ratio was 1. GCCTGTTTCG gave a switch fluorescence ratio of 1.06. For GCCTTACTAA, the switch fluorescence ratio was 1.18. GCCTTCCTAA was tested, and the switch fluorescence ratio was 2.59. GCCTTCCTTC was tested, and the switch fluorescence ratio was 2. Sequence GCCTTGAACG has a switch fluorescence ratio of 1.04. Work on GCCTTGATGC yielded a switch fluorescence ratio of 1.04. In the case of GCGAAACATT, the switch fluorescence ratio is reported as 1.04. Sequence GCGAAACTAT has a switch fluorescence ratio of 1.03. GCGAAGGTAT showed a switch fluorescence ratio of 1. For GCGAAGTTGG, the switch fluorescence ratio was 0.981. With GCGAATCCCG the switch fluorescence ratio was 1.07. GCGACCAGA showed a switch fluorescence ratio of 1.04. Sequence GCGACCGGAC has a switch fluorescence ratio of 1.68. In the case of GCGACCTGAG, the switch fluorescence ratio is reported as 1.1. GCGACGATTG showed a switch fluorescence ratio of 1.05. GCGACGTGTG gave a switch fluorescence ratio of 1.02. For GCGAGAAGC, the switch fluorescence ratio was 1. Work on GCGAGACAAA yielded a switch fluorescence ratio of 1.01. GCGAGACCC showed a switch fluorescence ratio of 1.05. Work on GCGAGAGATG yielded a switch fluorescence ratio of 0.99. In the case of GCGAGAGTGG, the switch fluorescence ratio is reported as 1.01. For GCGAGATGAC, the switch fluorescence ratio was 1.06. Work on GCGAGCGTTT yielded a switch fluorescence ratio of 0.99. With GCGAGGACGG the switch fluorescence ratio was 1.02. For GCGAGGAGAG, the switch fluorescence ratio was 0.98.
